Hit rate of the full screen: of about 48,000 compounds, about 550 (1.1%) were called active. Inconclusive results (about 4%) are left out. Rule as the data show it: active = potency below about 15 µM; inconclusive = mostly about 16 µM to 33 µM; inactive = weaker than that. Some of the results follow.

Potency data for 88 molecules are collected here from PubChem BioAssay AID360 (National Center for Advancing Translational Sciences (NCATS), 2006).
Potency is read from the fitted curve at half-maximal effect.

For this test, the target named is Lysosomal acid glucosylceramidase (Homo sapiens) (UniProt P04062). Kind of test: Glucocerebrosidase.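 Also: the screen sought inhibitors.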 Particulars: purified enzyme, resorufin glucoside fluorescence (screen aimed at inhibitors), 20 min. The essentials: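 Compounds titrated against 0.2 nM normal enzyme, 30 uM resorufin beta-D-glucopyranoside substrate, citrate/phosphate buffer with taurocholate and tween-20, pH 5.9. Reaction ran 20 min at room temperature; fluorescence (Ex 548/Em 600) gave AC50.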
Chain of UniProt P04062 (P04062 whole entry, looked up): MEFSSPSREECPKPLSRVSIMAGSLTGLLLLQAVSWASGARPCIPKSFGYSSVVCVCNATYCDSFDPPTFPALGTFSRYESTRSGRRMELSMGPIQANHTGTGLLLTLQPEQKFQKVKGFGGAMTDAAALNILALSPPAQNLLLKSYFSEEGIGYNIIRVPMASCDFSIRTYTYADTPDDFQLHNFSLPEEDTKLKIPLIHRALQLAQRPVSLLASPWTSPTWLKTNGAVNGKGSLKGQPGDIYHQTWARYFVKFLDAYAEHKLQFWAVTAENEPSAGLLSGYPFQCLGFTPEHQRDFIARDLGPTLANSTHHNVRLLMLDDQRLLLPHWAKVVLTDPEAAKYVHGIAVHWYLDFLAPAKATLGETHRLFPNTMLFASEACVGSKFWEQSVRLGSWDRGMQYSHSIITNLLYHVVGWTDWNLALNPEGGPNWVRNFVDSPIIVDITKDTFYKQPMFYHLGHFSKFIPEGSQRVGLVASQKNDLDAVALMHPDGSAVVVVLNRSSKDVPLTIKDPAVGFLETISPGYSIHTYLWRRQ
As to `O=C(C1CCCN(S(=O)(=O)Cc2ccccc2)C1)N1CCCCC1` (stereo not drawn), the Potency was inactive: > 76.9 µM.
The result for `CC1(C)CC(=O)C2=C(C1)NC(=O)CC2c1cccc(F)c1` (stereo not drawn) reads inactive: > 76.9 µM; that for `CSc1ncccc1C(=O)OCC(=O)NC1CCS(=O)(=O)C1` (stereo not drawn), inactive: > 76.9 µM.
`CCOC(=O)c1c(CN2CCC(C)CC2)oc2ccc(OC)cc12`: the Potency entry is “inactive”.
Turning to `COc1ccc(-n2c(=O)cc(N3CCc4ccccc43)[nH]c2=O)cc1`, the Potency is inactive: > 76.9 µM.
To `CC1=C(C(=O)NCc2ccccc2)C(c2ccccc2OCC(N)=O)NC(=O)N1` (stereo not drawn) belongs inactive: > 76.9 µM; to `CCCCC(=O)N(c1ccc(OC)cc1)C1C=CS(=O)(=O)C1` (stereo not drawn), “inactive”; to `COc1ccccc1NC(=O)C(C)NS(=O)(=O)c1ccc(Cl)cc1` (stereo not drawn), inactive: > 76.9 µM.
With `C=CCn1c(SCC(=O)Nc2nccs2)nnc1-c1cc2cccc(OC)c2o1`, the Potency is inactive: > 76.9 µM.
`CC(Sc1nnc(-c2cc3ccccc3o2)n1-c1ccccc1)C(=O)O` (stereo not drawn): the Potency was inactive: > 76.9 µM.
Regarding `COC(=O)c1cc(Br)c(=O)n(CC(C)C)c1`, the Potency is inactive: > 76.9 µM.
The result for `O=C(c1ccc(Cn2cc(Br)cn2)cc1)N1CCN(c2ccccc2)CC1` reads inactive: > 76.9 µM.
Take `CCC(Oc1ccccc1)C(=O)NCc1cccnc1` (stereo not drawn): the Potency was inactive: > 76.9 µM.
`CC(=O)Nc1ccc(S(=O)(=O)N(C)CC(=O)NC2=NCCS2)cc1`: the Potency is inactive: > 76.9 µM.
As to `O=C(CCn1nnc2ccccc2c1=O)N[C@@H](Cc1ccccc1)C(=O)O`, the Potency was inactive: > 76.9 µM.
On to `O=C(CSc1nccn1-c1ccc(Cl)cc1)Nc1ccc2c(c1)OCO2`, for which the Potency entry is “inactive”.
Turning to `CCc1c(C)nc2cc(-c3cc(OC)cc(OC)c3)nn2c1N1CCCC1`, the Potency is inactive: > 76.9 µM.
With `CCCc1cc(C(N)=O)c(NC(=O)c2ccoc2C)s1`, the Potency is inactive: > 76.9 µM.
Consider `CC1=CCP(=O)(c2ccccc2)C1` (stereo not drawn), for which the Potency was inactive: > 76.9 µM.
Take `CC(C)NCC(O)Cn1c2c(c3ccccc31)CCc1c-2cnn1-c1ccccc1` (stereo not drawn): the Potency is inactive: > 76.9 µM.
The result for `CCOC(=O)C1(CCSC)NC(c2ccco2)C2C(=O)N(C)C(=O)C21` (stereo not drawn) reads inactive: > 76.9 µM; that for `Cc1cc(C)nc(N2CCC(C(=O)NCc3ccco3)CC2)n1`, inactive: > 76.9 µM.
For `CCOc1cc(C(=O)CSc2nnc(CNc3ccc(Cl)cc3)o2)ccc1NC(=O)CC`, the Potency was inactive: > 76.9 µM.
Regarding `COc1ccc(-c2cc(C(=O)NCC(C)C)no2)cc1`, the Potency is inactive: > 76.9 µM.
Turning to `O=C(CSc1nnc(COc2cccc3cccnc23)o1)N1CCc2ccccc21`, the Potency is inactive: > 76.9 µM.
As to `CCOC(=O)CSc1nnc([C@H](Cc2ccccc2)NC(=O)OC(C)(C)C)o1`, the Potency was inactive: > 76.9 µM.
For `CCOc1ccc2nc(NC(=O)CSc3nnnn3C3CCCCC3)sc2c1`, the Potency was inactive: > 76.9 µM.
As for `CCn1c(SCC(=O)Nc2nc3ccccc3s2)nc2c(c1=O)SC(C)C2` (stereo not drawn), the Potency is inactive: > 76.9 µM.
For `Cc1cccc(-n2nnc(C(=O)NCc3ccc4c(c3)OCO4)c2N)c1`, the Potency was inactive: > 76.9 µM.
Consider `COc1ccc(NC(=O)CSc2nc3c(c(=O)n2-c2ccccc2)SCC3)c(OC)c1`, for which the Potency is inactive: > 76.9 µM.
For `COCCNC(=O)CSc1nc2ccccc2c(=O)n1CCCC(=O)NCc1ccccc1`, the Potency was inactive: > 76.9 µM.
With `CCOc1nc(-c2ccccc2)ccc1-c1noc(-c2ccc(OC)c(OC)c2)n1`, the Potency was inactive: > 76.9 µM.
`Cc1cc(C)cc(NC(=O)c2cc(S(=O)(=O)NCc3ccco3)ccc2F)c1`: the Potency was inactive: > 76.9 µM.
For `CN(C(=O)c1ccno1)c1nnc(-c2cccnc2)s1`, the Potency was inactive: > 76.9 µM.
With `COc1ccc2c(=O)c3c(=O)n(Cc4ccco4)c(C4CCCCC4)nc3oc2c1`, the Potency is inactive: > 76.9 µM.
With `COc1cc(C2C(C#N)=C(N)Oc3n[nH]c(C)c32)cc2c1OCO2` (stereo not drawn), the Potency was inactive: > 76.9 µM.
As for `CCOc1ccc(C2/C(=C(\O)c3c(C)[nH]c(C(=O)OC)c3C)C(=O)C(=O)N2CCN(C)C)cc1` (stereo not drawn), the Potency is inactive: > 76.9 µM.
To `CC(C)(C)c1ccc(OCc2nc(-c3ccccn3)no2)c(Br)c1` belongs inactive: > 76.9 µM; to `CCCCOC(=O)Cn1cnc2ccc(Br)cc2c1=O`, inactive: > 76.9 µM; to `CC1CCCCC1NS(=O)(=O)c1ccc(S(=O)(=O)N2CCCC2)cc1` (stereo not drawn), inactive: > 76.9 µM.
In the case of `COC(=O)c1[nH]c(C)c(/C(O)=C2\C(=O)C(=O)N(CCN(C)C)C2c2ccc(OC)cc2)c1C` (stereo not drawn), the Potency was inactive: > 76.9 µM.
For `CCCCN(CC)CCNC(=O)Cn1cnc2sc(C)c(S(=O)(=O)N3CCOCC3)c2c1=O`, the Potency was inactive: > 76.9 µM.
Take `Cc1c(-c2ccccc2)c(P(=O)(N2CCOCC2)N2CCOCC2)c2ccccn12`: the Potency was inactive: > 76.9 µM.
Consider `O=C(c1ccc2c3c(cccc13)CC2)N1CCN(c2ncccn2)CC1`, for which the Potency is inactive: > 76.9 µM.
The result for `O=C(O)CNC(=O)c1ccc2c(c1)OCCO2` reads inactive: > 76.9 µM; that for `CC1(c2ccccc2Cl)NC(=O)N(CC(=O)NC(=O)NCc2ccco2)C1=O` (stereo not drawn), inactive: > 76.9 µM; that for `CCOC(=O)C1=C(C)N=C2SC(CC)C(=O)N2C1c1cccc(F)c1` (stereo not drawn), inactive: > 76.9 µM.
As for `Cc1ccc(C2(C)NC(=O)N(Cc3c(C)noc3C)C2=O)cc1` (stereo not drawn), the Potency result was “inactive”.
Regarding `Cc1cc(C)n(-c2ccc(C(=O)OCC(=O)c3ccc(Br)s3)cc2)n1`, the Potency was inactive: > 76.9 µM.
`Cc1cc(C)n2nc(SCc3ncc(-c4ccccc4)o3)nc2n1`: the Potency is inactive: > 76.9 µM.
To `CC(C)N1C[C@@]23C=C[C@@H](O2)C(C(=O)OCc2ccccc2)[C@H]3C1=O` (stereo partly drawn) belongs inactive: > 76.9 µM; to `COC(=O)C1=C(C)n2nnnc2NC1c1ccc(Cl)cc1` (stereo not drawn), inactive: > 76.9 µM; to `Cc1cc(NC(=O)CSc2nnnn2C2CCCC2)no1`, inactive: > 76.9 µM.
With `Cc1cc(C)nc(Sc2ccc3nnc(C(F)(F)C(F)(F)C(F)(F)F)n3n2)n1`, the Potency is inactive: > 76.9 µM.
The result for `COc1ccc(Cc2nnc(SCc3c(C)noc3C)n2C2CCCCC2)cc1OC` reads inactive: > 76.9 µM; that for `Cc1ccc(NC(=O)COC(=O)C2CC2C)c(S(=O)(=O)N2CCCCC2)c1` (stereo not drawn), inactive: > 76.9 µM; that for `c1ccc(CSc2nnc(-c3cccs3)n2Cc2ccco2)cc1`, inactive: > 76.9 µM.
Regarding `CC1Cc2ccccc2N1S(=O)(=O)c1cccc(C(=O)OCC(=O)NC2CCS(=O)(=O)C2)c1` (stereo not drawn), the Potency entry was “inactive”.
As to `O=C(O)c1cccc(N2C(=O)CCC2=O)c1`, the Potency was inactive: > 76.9 µM.
As to `COc1ccc(Nc2nc(N)nc(CN3CCOCC3)n2)cc1`, the Potency was inactive: > 76.9 µM.
As for `Cc1noc(NS(=O)(=O)c2ccc(NC(=O)CSc3n[nH]c(-c4ccccc4)n3)cc2)c1C`, the Potency was inactive: > 76.9 µM.
For the molecule `Cc1ccc(C)c(-n2c(SCC(N)=O)nnc2-c2ccccn2)c1`, the Potency was inactive: > 76.9 µM.
For the molecule `Cc1ccc(Nc2cc(C)nc3nnnn23)cc1`, the Potency was inactive: > 76.9 µM.
Consider `CCCCOC(=O)Nc1ccc(OC)cc1S(=O)(=O)N1CCOCC1`, for which the Potency was inactive: > 76.9 µM.
In the case of `CCOC(=O)c1[nH]c(C)c(C(=O)Nc2ccccc2F)c1C`, the Potency is inactive: > 76.9 µM.
Turning to `CC1CCc2nc(NC(=O)CN3CCOCC3)sc2C1` (stereo not drawn), the Potency is inactive: > 76.9 µM.
The result for `Cn1c(=O)c2c(nc(N3CCCCCC3)n2CC(O)COc2ccccc2)n(C)c1=O` (stereo not drawn) reads inactive: > 76.9 µM; that for `COc1ccc(NC(=O)CSc2nc3ccccc3c(=O)n2CCNC(C)=O)c(OC)c1`, inactive: > 76.9 µM.
As for `O=c1cc(COn2nnc3ccc(C(F)(F)F)cc32)nc2sccn12`, the Potency was inactive: > 76.9 µM.
For the molecule `CCOC(=O)c1cccc(NC(=O)CCc2c(C)nc3ncnn3c2C)c1`, the Potency is inactive: > 76.9 µM.
On to `CN1CCNC(=O)C1CC(=O)O` (stereo not drawn), for which the Potency was inactive: > 76.9 µM.
In the case of `COc1ccc(CSc2nnc(C)n2N)cc1`, the Potency is inactive: > 76.9 µM.
With `CC12C(=O)N(CCC(=O)O)C(=O)C1C1C=CC2C1` (stereo not drawn), the Potency was inactive: > 76.9 µM.
The result for `COc1cc(OC)c(C2C(C(=O)N3CCOCC3)=C(C)NC3=C2C(=O)CC(C)(C)C3)cc1OC` (stereo not drawn) reads inactive: > 76.9 µM.
Take `CCOC(=O)N1CCN(S(=O)(=O)c2cc(Br)cc3c2N(C(=O)CC)CC3)CC1`: the Potency is inactive: > 76.9 µM.
Turning to `CCN(CC)CCCN(Cc1cc2cc3c(cc2[nH]c1=O)OCO3)C(=O)Nc1ccccc1OC`, the Potency was inactive: > 76.9 µM.
With `CC1(C)CC(=O)C(CC2=C(O)CC(C)(C)CC2=O)=C(O)C1`, the Potency is inactive: > 76.9 µM.
The result for `COc1ccc(CN2CC(C(=O)NCCCN3CCN(Cc4ccccc4)CC3)CC2=O)cc1` (stereo not drawn) reads inactive: > 76.9 µM; that for `O=C(c1cccc(S(=O)(=O)N2CCCCC2)c1)N1CCCCC1`, inactive: > 76.9 µM; that for `COc1ccc(CCNC(=O)CSc2nc(C)nc3c2oc2ccccc23)cc1OC`, inactive: > 76.9 µM.
For the molecule `CC(=O)c1oc2ccccc2c1N`, the Potency is inactive: > 76.9 µM.
Turning to `CCC(=O)c1ccc(OCC(O)CN(C)C2CCCCC2)cc1` (stereo not drawn), the Potency is inactive: > 76.9 µM.
The result for `O=C(Nc1ccccc1C(=O)O)c1cccc(NC(=O)c2ccc(Br)o2)c1` reads inactive: > 76.9 µM; that for `Cc1noc(NS(=O)(=O)c2ccc(N3C(=O)c4ccccc4C3=O)cc2)c1C`, inactive: > 76.9 µM.
For the molecule `Cc1cccc(N(CC(=O)NC2CCCCC2)C(=O)CCC(=O)Nc2cc(C)ccn2)c1`, the Potency is inactive: > 76.9 µM.
The result for `Cc1nc(NC(=O)CSc2nc3cccnc3n2Cc2ccccc2)sc1C` reads inactive: > 76.9 µM; that for `COc1ccc(S(=O)(=O)NC(CC(=O)N2CCc3ccccc32)c2ccco2)cc1` (stereo not drawn), inactive: > 76.9 µM.
Take `COc1ccc(O)c(C(=O)c2cc(C#N)c(=O)n(CCN3CCOCC3)c2)c1`: the Potency is inactive: > 76.9 µM.
